Data published in the RNAGym collection of RNA variant scans (doi:10.1093/nar/gkz1192).
The source gives no read counts; variants with many changes may rest on few reads.

B1: CPEB3 Ribozyme (parent)
chain: UAACAGGGGGCCACAGCAGAAGCGUUCACGUCGCAGCCCCUGUCAGAUUCUGGUGAAUCUGCGAAUUCUGCUGUAUAUCUC

Variants of: B1
Assay: self-cleavage, relative activity (ratio to wild type); higher = more cleavage; in vitro, sequencing
Outline: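 Relative activity was defined as the cleaved/total read fraction for a variant divided by the same fraction for the unmutated ribozyme. CPEB3 self-cleaving ribozyme libraries were made by rounds of error-prone PCR, barcoded, and transcribed in vitro with T7 RNA polymerase for 5 hours at 37°C, and cleavage ran through transcription plus a 15 min DNase I step before EDTA. Illumina sequencing of template-switched reverse transcripts gave the reads, and DNA sequencing mapped the barcodes. Averages come from three batches, using variants with at least 5 reads.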

Variant | self-cleavage
C11U A35G A47G U58A A64G | 0.49
C11U A35G C37G U51A A64G U67C | 0.05
C11U A35G U60G | 0.8
C11U A35U G42A | 0.12
C11U A35U U72C U80C | 0.18
C11U A45C U48C | 0.17
C11U A45G U51G U78C | 0.09
C11U A45G U67C A77U | 0.14
C11U A45U U49A U67A U69C U80C | 0.04
C11U A47U U66A | 0.13
C11U A56G U80A | 0.5
C11U A57G U60C A75U | 0.06
C11U A64G U78A | 0.25
C11U A64G U78C | 0.15
C11U C12A A45C | 0.27
C11U C12A G19C U26C G30C U54A U69C | 0.1
C11U C12U U26C U69C | 0.08
C11U C12U U31C | 0.27
C11U C17U C62A U67C A77G | 0.13
C11U C23U C32G C44U U54C | 0.04
C11U C23U U26A A45G | 0.06
C11U C27A U48C | 0.23
C11U C27G U72A A75G | 0.02
C11U C27U A28G A56U A64G | 0.07

Variant | self-cleavage
C11U C29U A75U | 0.29
C11U C32A A56G U69A | 0.21
C11U C37A U54A U60A A64G U69A A75G | 0.05
C11U C39U A45U A47G U60A | 0.37
C11U C40U A64G A65G | 0.06
C11U C50A U54C U58A U66C U67C U76G | 0.04
C11U C59U A64U | 0.09
C11U G16A A18C U31C U41G | 0.06
C11U G16A U31G U80A | 0.05
C11U G16U A21G A47G U74C | 0.34
C11U G22A U31C A45G U51C C71A U78A | 0.02
C11U G22C U41C U51C A56G U74C | 0.09
C11U G24A U49C A64U U72C U76C | 0.06
C11U G24C U43C U51C A65G U72C | 0.08
C11U G30A C32U C50U A56U A64U U80C | 0.03
C11U G30A U80C | 0.38
C11U G30U C37U A45U U48C U66C | 0.05
C11U G30U C37U U43C U48C U66C A77G | 0.03
C11U G30U U49G C71U | 0.07
C11U G33A A56U C71U U72C A77G | 0.03
C11U G33A C59A | 0.15
C11U G33A U41C U54A | 0.2
C11U G42C U49C A64G U69C G73A | 0.12
C11U G46C U72C | 0.16

Variant | self-cleavage
C11U G55A A57G A77G | 0.19
C11U G63A A75G | 0.12
C11U G63A U80C | 0.32
C11U U25A A28C A57G U58A U66C U67C | 0.11
C11U U25A U26C U69C A77U | 0.04
C11U U25A U51C A57G U67C U80C | 0.05
C11U U25A U58C | 0.07
C11U U25C A64U U67C | 0.04
C11U U25C A75U | 0.13
C11U U25C U43A C50A | 0.26
C11U U25C U72A A75G | 0.24
C11U U26A G52A U80C | 0.35
C11U U26A U31C G52U | 0.17
C11U U26A U60C A77G | 0.05
C11U U26C A28G | 0.35
C11U U26C A35U U49C A64U | 0.06
C11U U26C U41G G70A U80C | 0.09
C11U U26C U43C A45G | 0.29
C11U U26C U72C | 0.33
C11U U31A U60C | 0.06
C11U U31A U66C | 0.07
C11U U31G U60C | 0.13
C11U U41A A75G | 0.11
C11U U41C A45U G46C A57G U76C U78C | 0.04

Variant | self-cleavage
C11U U41C A64U U72G U78A | 0.05
C11U U41C U49A U54C C62A A64G U67C | 0.06
C11U U43A U60A | 0.52
C11U U43C A57G U80C | 0.2
C11U U43C U48C | 0.07
C11U U43G C62A | 0.07
C11U U48C U49C U72A | 0.07
C11U U49C U69G U80C | 0.04
C11U U54A U58C U69A U72C U78C | 0.07
C11U U54C A56G U58C U60C A64U U66C | 0.05
C11U U54C U60A | 0.1
C11U U58C A64U | 0.13
C11U U74A U80A | 0.89
C11U U78C U80C | 0.18
C12A A13G A15U U26A U69C U72A U78C | 0.13
C12A A13G A18C A65G | 0.14
C12A A13G A18G A45U U48C | 0.17
C12A A13G A21G G22A U54C | 0.16
C12A A13G A64U A75G U78C | 0.49
C12A A13G G30A U48C | 0.08
C12A A13G U26A U51G U67C U72A A75U | 0.22
C12A A13G U26C A28G G52A | 0.24
C12A A13G U43A U72C | 0.5
C12A A13G U72C | 1.12

Variant | self-cleavage
C12A A13U A20G A21G U51C U60C | 0.23
C12A A13U A21G G24A U25G | 0.06
C12A A13U A21G G24A U51A U58C | 0.05
C12A A13U A21G U58C | 0.3
C12A A13U A35G U74G | 1.09
C12A A15G A18G U51A A56U | 0.12
C12A A15G A75U | 1.2
C12A A15G C32A A64U U74A | 0.13
C12A A15U U25C U58C A64G U74C | 0.07
C12A A15U U60A U66C U76C | 0.16
C12A A15U U72C | 0.88
C12A A18C C32A A57C U67A U72C | 0.06
C12A A18G G24A | 0.28
C12A A18U A21G A28G U31C G33A C40A | 0.06
C12A A18U C50G | 0.21
C12A A21G A35G U66G | 0.41
C12A A21G A64U | 0.15
C12A A21G G22A U54C | 0.21
C12A A21G U26C G46A | 0.28
C12A A21U U25C U31C U43A U51G U54A | 0.08
C12A A28C U66A | 0.26
C12A A28G G33A U43A A75G U78C | 0.04
C12A A28G U51C U74A | 0.96
C12A A28G U60G | 0.14

Variant | self-cleavage
C12A A28U U41A A57G | 0.06
C12A A28U U60A U72C A75G U80C | 0.53
C12A A35G A47G U67A U72C | 0.37
C12A A35G A64C | 0.21
C12A A35G U72A U78C | 0.09
C12A A35U C37U U48C C59G | 0.14
C12A A45G A65G | 0.45
C12A A57G A64G | 0.93
C12A A57G U74A | 0.93
C12A A65G C79A | 0.79
C12A A65G U69A A75U | 0.14
C12A A65G U69C | 0.31
C12A C14A C32G U41C C62A | 0.06
C12A C17U G30U A77U U80C | 0.15
C12A C23G U41C U49C U67A | 0.07
C12A C27A A28G U31A U54G A65C U67A | 0.15
C12A C27G A47C A56G | 0.18
C12A C29U C40A U41A U51C | 0.19
C12A C40A U54A U58C | 0.09
C12A G24A C32A U58C A64G U69A | 0.03
C12A G24A U51A U67C | 0.13
C12A U25A A64G | 0.45
C12A U25A U41C U78C | 0.14
C12A U25C A45G U48C A64U U66C | 0.03

Variant | self-cleavage
C12A U25C U78C | 0.09
C12A U26A G33A U54A A56U A77C | 0.08
C12A U26A G33A U54A A77C | 0.13
C12A U26C C81A | 0.64
C12A U26C U43G A56U U60C U74C | 0.23
C12A U41C A56U | 0.68
C12A U41C U72C U78C | 1.23
C12A U43C A65C | 0.08
C12A U43C U51C | 0.82
C12A U43C U69A | 0.35
C12A U60C C62G | 0.2
C12G A13C A21G U31G C62G U72C | 0.04
C12G A13G G24A U26C U31C | 0.22
C12G A13G U26A C44G C62G U72A | 0.07
C12G A13U U25C C40A U69A U74C | 0.04
C12G A13U U25C U26A C40A U54C | 0.15
C12G A15U C23G C44A U54G A64G | 0.03
C12G A18C U25C U26C U43C C68G | 0
C12G A18U A28G A65C A77G C81U | 0.04
C12G A18U A47C U54C | 0.13
C12G A20G C32A U41A U60C | 0.05
C12G A20G C39A | 0.06
C12G A20G U31A U54A U66C | 0.1
